# Measured values taken from the supplement of paper PMC8728848.
# The other results are listed elsewhere or left out.
# B1: Gal 4 (Homo sapiens), Q8K419 (protein)
# chain: MAYVPAPGYQPTYNPTLPYKRPIPGGLSVGMSVYIQGMAKENMRRFHVNFAVGQDDGADVAFHFNPRFDGWDKVVFNTMQSGQWGKEEKKKSMPFQKGKHFELVFMVMPEHYKVVVNGNSFYEYGHRLPVQMVTHLQVDGDLELQSINFLGGQPAAAPYPGAMTIPAYPAGSPGYNPPQMNTLPVMTGPPVFNPRVPYVGALQGGLTVRRTIIIKGYVLPTARNFVINFKVGSSGDIALHLNPRIGDSVVRNSFMNGSWGAEERKVAYNPFGPGQFFDLSIRCGMDRFKVFANGQHLFDFSHRFQAFQMVDTLEINGDITLSYVQI
# Experiments:
# Assay in all cases: glycan array binding signal (z-score within array); higher = stronger binding
# Settings in all cases: glycan notation: IUPAC condensed, linker removed
# [1] = target: GalNAc(a1-3)GalNAc(a1-3)Gal(a1-4)Gal(b1-4)GlcNAc
# Outline: (§1)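 From the Consortium for Functional Glycomics database, 3228 arrays were curated, keeping only those whose protein sequence was available. Binding is given as a within-array Z-score averaged across arrays sharing a protein sequence and across linkers. Negative Z-scores can be read as non-binding.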
# [2] = target: GalNAc(a1-3)GalNAc(b1-3)Gal(a1-4)Gal(b1-4)Glc
# Outline: as §1
# [3] = target: GalNAc(a1-3)GalNAc(b1-3)Gal(a1-4)Gal(b1-4)GlcNAc
# Outline: as §1
# GalNAc(b1-3)Gal = target: GalNAc(b1-3)Gal
# Outline: as §1
# [4] = target: GalNAc(b1-3)Gal(a1-4)Gal(b1-4)GlcNAc
# Outline: as §1
# [5] = target: GalNAc(b1-3)Gal(a1-4)Gal(b1-4)GlcNAc(b1-3)Gal(b1-4)Glc
# Outline: as §1
# [6] = target: GalNAc(b1-3)Gal(a1-6)Gal(b1-4)Glc
# Outline: as §1
# GalNAc(b1-3)GalNAc = target: GalNAc(b1-3)GalNAc
# Outline: as §1
# GalNAc(b1-4)Gal(b1-4)Glc = target: GalNAc(b1-4)Gal(b1-4)Glc
# Outline: as §1
# GalNAc(b1-4)GlcNAc = target: GalNAc(b1-4)GlcNAc
# Outline: as §1
# [7] = target: GalNAc(b1-4)GlcNAc(b1-2)Man(a1-3)[GalNAc(b1-4)GlcNAc(b1-2)Man(a1-6)]Man(b1-4)GlcNAc(b1-4)GlcNAc
# Outline: as §1
# GalNAc(b1-4)GlcNAc6S = target: GalNAc(b1-4)GlcNAc6S
# Outline: as §1
# GalNAc(b1-6)GalNAc = target: GalNAc(b1-6)GalNAc
# Outline: as §1
# GalNAc3S(b1-4)GlcNAc = target: GalNAc3S(b1-4)GlcNAc
# Outline: as §1
# GalNAc3S(b1-4)GlcNAc3S = target: GalNAc3S(b1-4)GlcNAc3S
# Outline: as §1
# GalNAc4S6S(b1-4)GlcNAc = target: GalNAc4S6S(b1-4)GlcNAc
# Outline: as §1
# GalNAc6S(b1-4)GlcNAc = target: GalNAc6S(b1-4)GlcNAc
# Outline: as §1
# Glc(a1-4)Glc = target: Glc(a1-4)Glc
# Outline: as §1
# [8] = target: Glc(a1-4)Glc(a1-4)Glc(a1-4)Glc
# Outline: as §1
# Glc(a1-6)Glc(a1-6)Glc = target: Glc(a1-6)Glc(a1-6)Glc
# Outline: as §1
# [9] = target: Glc(a1-6)Glc(a1-6)Glc(a1-6)Glc
# Outline: as §1
# Glc(b1-4)Glc = target: Glc(b1-4)Glc
# Outline: as §1
# Glc(b1-6)Glc = target: Glc(b1-6)Glc
# Outline: as §1
# GlcA(b1-3)Gal = target: GlcA(b1-3)Gal
# Outline: as §1
# GlcA(b1-3)GlcNAc = target: GlcA(b1-3)GlcNAc
# Outline: as §1
# GlcA(b1-6)Gal = target: GlcA(b1-6)Gal
# Outline: as §1
# [10] = target: GlcNAc(a1-3)Gal(b1-4)GlcNAc
# Outline: as §1
# [11] = target: GlcNAc(a1-4)Gal(b1-3)GlcNAc
# Outline: as §1
# [12] = target: GlcNAc(a1-4)Gal(b1-4)GalNAc
# Outline: as §1
# [13] = target: GlcNAc(a1-4)Gal(b1-4)GlcNAc
# Outline: as §1
# [14] = target: GlcNAc(a1-4)Gal(b1-4)GlcNAc(b1-3)Gal(b1-4)Glc
# Outline: as §1
# [15] = target: GlcNAc(a1-4)Gal(b1-4)GlcNAc(b1-3)Gal(b1-4)GlcNAc
# Outline: as §1
# [16] = target: GlcNAc(a1-4)Gal(b1-4)GlcNAc(b1-3)Gal(b1-4)GlcNAc(b1-3)Gal(b1-4)GlcNAc
# Outline: as §1
# [17] = target: GlcNAc(a1-4)Gal(b1-4)GlcNAc(b1-3)Gal(b1-4)[Fuc(a1-3)]GlcNAc(b1-3)Gal(b1-4)[Fuc(a1-3)]GlcNAc
# Outline: as §1
# [18] = target: GlcNAc(a1-6)Gal(b1-4)GlcNAc
# Outline: as §1
# [19] = target: GlcNAc(b1-2)Gal(b1-3)GalNAc
# Outline: as §1
# [20] = target: GlcNAc(b1-2)Man(a1-3)[GlcNAc(b1-2)Man(a1-6)]Man(b1-4)GlcNAc(b1-4)GlcNAc
# Outline: as §1
binder,measurement,setting,value
B1,glycan array binding signal (z-score),[1],-0.039
same,glycan array binding signal (z-score),[2],0.616
same,glycan array binding signal (z-score),[3],0.701
same,glycan array binding signal (z-score),GalNAc(b1-3)Gal,0.837
same,glycan array binding signal (z-score),[4],-0.146
same,glycan array binding signal (z-score),[5],0.464
same,glycan array binding signal (z-score),[6],-0.111
same,glycan array binding signal (z-score),GalNAc(b1-3)GalNAc,-0.182
same,glycan array binding signal (z-score),GalNAc(b1-4)Gal(b1-4)Glc,-0.211
same,glycan array binding signal (z-score),GalNAc(b1-4)GlcNAc,-0.18
same,glycan array binding signal (z-score),[7],-0.215
same,glycan array binding signal (z-score),GalNAc(b1-4)GlcNAc6S,-0.07
same,glycan array binding signal (z-score),GalNAc(b1-6)GalNAc,-0.201
same,glycan array binding signal (z-score),GalNAc3S(b1-4)GlcNAc,-0.086
same,glycan array binding signal (z-score),GalNAc3S(b1-4)GlcNAc3S,-0.214
same,glycan array binding signal (z-score),GalNAc4S6S(b1-4)GlcNAc,-0.209
same,glycan array binding signal (z-score),GalNAc6S(b1-4)GlcNAc,-0.213
same,glycan array binding signal (z-score),Glc(a1-4)Glc,-0.206
same,glycan array binding signal (z-score),[8],-0.213
same,glycan array binding signal (z-score),Glc(a1-6)Glc(a1-6)Glc,-0.207
same,glycan array binding signal (z-score),[9],-0.214
same,glycan array binding signal (z-score),Glc(b1-4)Glc,-0.202
same,glycan array binding signal (z-score),Glc(b1-6)Glc,-0.203
same,glycan array binding signal (z-score),GlcA(b1-3)Gal,-0.192
same,glycan array binding signal (z-score),GlcA(b1-3)GlcNAc,-0.174
same,glycan array binding signal (z-score),GlcA(b1-6)Gal,-0.201
same,glycan array binding signal (z-score),[10],-0.175
same,glycan array binding signal (z-score),[11],-0.203
same,glycan array binding signal (z-score),[12],-0.2
same,glycan array binding signal (z-score),[13],-0.196
same,glycan array binding signal (z-score),[14],0.909
same,glycan array binding signal (z-score),[15],-0.046
same,glycan array binding signal (z-score),[16],-0.015
same,glycan array binding signal (z-score),[17],-0.165
same,glycan array binding signal (z-score),[18],-0.201
same,glycan array binding signal (z-score),[19],-0.175
same,glycan array binding signal (z-score),[20],-0.206
